Whole data set: some 33,000 sequences, median “E-score (-0.5 to 0.5)” near -0.056, cut for the highest 2% near 0.38. The list shows a part of the results.
The sequences below were run against Stb4 (UniProt P50104) (assay: PBM E-score (8-mer binding enrichment) (E-score (-0.5 to 0.5)); higher = stronger / more preferred TF binding; most listed sequences are background and not binding sites). Conditions: protein concentration: 200 nM; construct: GST-DNA-binding domain.
Procedure, shortened: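 GST-tagged yeast TFs (full-length or DNA-binding domain) were made by PURExpress in vitro transcription/translation and applied at about 100-200 nM to universal all-10-mer Agilent arrays. The arrays were made double-stranded by primer extension, on fresh or once-stripped slides. Bound protein was detected with fluorescent anti-GST, and scans were normalised with masliner. Each ungapped eight-base word, pooled with its reverse complement, received an E-score (modified Wilcoxon-Mann-Whitney statistic) from the Universal PBM Analysis Suite.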

Row | Sequence | PBM E-score
1 | AGTGTAGG | -0.103
2 | ACTCAAGT | -0.268
3 | TGCGGACA | 0.0349
4 | GGGCTACA | -0.161
5 | CAACGCCC | -0.0447
6 | CGGCTTGA | 0.2
7 | TAAACAAA | -0.0349
8 | CCTTAATC | -0.0352
9 | CGCTGCTC | -0.115
10 | AAATTCGC | 0.0337
11 | CCGACAGG | 0.306
12 | CAATACAG | -0.124
13 | ATCGCGTG | 0.0348
14 | CTACAATC | -0.00051
15 | CTTTGGAA | -0.158
16 | CGGATATA | 0.452
17 | CGATCAGC | 0.0117
18 | AAGGTTAG | -0.233
19 | AGATCCCG | 0.407
20 | GGCCAGTA | -0.0686
21 | CGTATTTA | -0.00042
22 | CAGGGCCC | -0.11
23 | ACTCTCAA | -0.413
24 | AGGCTACA | -0.254
25 | CCAGCACC | -0.191
26 | CCTTACCA | -0.278

Row | Sequence | PBM E-score
27 | AATGTTAT | 0.00102
28 | ACCACCCC | -0.115
29 | ACTTAAAG | -0.237
30 | CTGTTAAC | 0.118
31 | CACCTCTA | -0.00727
32 | ACACATTG | 0.0142
33 | ACGAACAT | 0.0333
34 | CGCTGTAA | -0.0623
35 | ATTTTCGG | 0.423
36 | ATTGACTG | -0.182
37 | TTATACAA | 0.0885
38 | CATCTCCA | -0.152
39 | CCGGGACG | 0.28
40 | ACTCCCAT | -0.304
41 | GGCCTCCC | 0.113
42 | CTTCTGGA | 0.0106
43 | AGAATTCA | -0.181
44 | ACTGCAGT | -0.318
45 | AGGGCCAG | -0.297
46 | TGCTTCCA | -0.323
47 | TGGGAGAA | -0.223
48 | ACATCCGC | 0.382
49 | ATCAGCCG | 0.314
50 | ACTCCCAG | -0.141
51 | CATCCGAC | 0.455
52 | ACAGGATG | -0.125

Row | Sequence | PBM E-score
53 | ACAGGAGA | -0.0422
54 | GGGATTAA | 0.202
55 | ATAAGGAA | -0.0893
56 | GTCATCTA | -0.0621
57 | AGAAATCT | -0.0766
58 | GACATGCC | 0.00238
59 | GTGTTGCA | -0.099
60 | AGCCCTAC | 0.025
61 | CTATTAAC | -0.0216
62 | CAATAGCG | -0.0639
63 | AGATAGAA | -0.122
64 | ATCAACAG | -0.00627
65 | TAAACCCA | -0.179
66 | CTTATCGA | -0.105
67 | AGCTCCAT | -0.206
68 | GGTATATA | -0.0302
69 | CATGAGGC | -0.0911
70 | GTCTATAA | -0.136
71 | ACACTATA | -0.225
72 | CTCCGTGC | 0.217
73 | ACAGGGAC | -0.0374
74 | GTGAGCAA | -0.125
75 | GCGATGCC | -0.00713
76 | CCCCTCAC | 0.0126
77 | CCTAGGAC | -0.267
78 | GAGTCAGC | -0.135

Row | Sequence | PBM E-score
79 | AGACATGA | -0.271
80 | GGAACTTA | 0.341
81 | GCTTCTGA | -0.00608
82 | ATTCACAC | -0.121
83 | GCTACGCA | 0.128
84 | AAGAGCGT | -0.0886
85 | AAGATAGG | -0.308
86 | AAGGCCCG | 0.15
87 | ATTGGGGC | -0.18
88 | AGCATATG | -0.297
89 | ACAAATCG | -0.057
90 | AGTTTCAT | -0.0839
91 | ACGCAAAA | -0.164
92 | CCCCTACA | -0.252
93 | GCAGCATA | -0.192
94 | CCACCGCA | -0.0223
95 | TACATTCA | -0.181
96 | CCTTCCGA | 0.451
97 | GGTTTTAC | -0.00413
98 | CCCGCGCA | 0.117
99 | TGACGACA | -0.0613
100 | TACAGACA | -0.183
101 | AAGGAAGT | 0.119
102 | ATCTTGTG | -0.185
103 | CCCCGGCC | 0.17

Reference: the supplement of paper PMC3334620
